Consider 86 compounds from PubChem BioAssay AID463173 (ICCB-Longwood Screening Facility, Harvard Medical School, 2010).

The structures appear in SMILES notation. Among all 52,000 compounds or so, about 4,300 (8.3%) were called active. No stated cut-off is given here; in the data, active means survival mostly below about 52% (no sharp cut-off); inactive means mostly above about 56%. Some of the results follow.

This experiment relates to DeltatarO mutant. The experiment can be described thus: S. aureus survival, RN4220 and DeltatarO strains – OD600, teichoic acid synthesis inhibitors, primary screen (AID 463173). The note with it: S. aureus RN4220 wild type/DeltatarO growth, OD600, 18 h, active compounds read low, screened at 18.75 µg/mL (by protocol).
On to `Cc1cn2c(=O)cc(COC(=O)c3cccc(NC(=O)COc4ccccc4)c3)nc2s1`, for which the survival was inactive: 60%.

For `CCOC(=O)c1c(NC(=O)CSc2cn(CCNC(=O)c3ccc(OC)c(OC)c3)c3ccccc23)sc2c1CCC2`, the survival was inactive: 86%.

Turning to `COCCNC(=O)c1cc(-c2ccccc2)on1`, the survival is inactive: 100%.

On to `Cc1cc(C)n2nc(-c3ccc(Cl)cc3)nc2n1`, for which the survival is inactive: 76%.

For `COc1ccc(OC)c(NC(=O)c2oc3c(c2C)-c2nn(Cc4ccc(Cl)cc4)cc2CC3)c1`, the survival was inactive: 97%.

Consider `CC1CCN(CCCNC(=O)c2cn(C)c3ccc(S(=O)(=O)N(C)C4CCCCC4)cc3c2=O)CC1`, for which the survival was inactive: 131%.

Turning to `COc1cc2c(cc1OC)C(COc1ccc(C(C)C)cc1)N(C(=O)c1ccc(S(=O)(=O)N3CCCC3)cc1)CC2` (stereo unspecified), the survival was inactive: 88%.

For `COc1ccc(N2CCN(S(=O)(=O)c3ccc4c(c3)CCCN4C(C)=O)CC2)cc1`, the survival was inactive: 70%.

For the compound `CCC(C)n1c(SCc2c(F)cccc2Cl)nc2ccsc2c1=O` (stereo unspecified), the survival was inactive: 126%.

With `COc1cc(N2C(=O)CSC23C(=O)N(Cc2ccc(C)cc2)c2ccccc23)cc(OC)c1OC` (stereo unspecified), the survival is inactive: 73%.

On to `Cc1ccc2c(c1)N(C(=O)CCC(=O)NCc1cccs1)CCO2`, for which the survival was inactive: 55%.

Regarding `Cc1ccc(C)c(CN2C(=O)c3ccccc3S(=O)c3ccc(C(=O)N4CCN(c5ccccc5F)CC4)cc32)c1` (stereo unspecified), the survival is inactive: 99%.

As to `COc1ccc(Nc2nc3cc(Cl)c(Cl)cc3n3cnnc23)cc1Cl`, the survival was inactive: 75%.

For the compound `Cn1c(=O)oc2cc(S(=O)(=O)N3CCC(C(=O)NCc4ccc(F)cc4)CC3)ccc21`, the survival was inactive: 93%.

Regarding `O=C(Nc1nnc(S(=O)(=O)N2CCCC2)s1)c1ccccc1Br`, the survival was active: 36%.

As for `Cc1ccccc1OCCCn1c(-c2ccc(Cl)cc2)nc2ccccc2c1=O`, the survival was inactive: 80%.

Regarding `Cc1ccccc1Cn1nnc2c(=O)[nH]c(C3CCCN(C(=O)c4ccc(F)cc4)C3)nc21` (stereo unspecified), the survival was inactive: 114%.

On to `COc1ccc(NC(=O)CC2C(=O)N(c3ccc(C)cc3)C(=O)N2Cc2ccc3c(c2)OCO3)cc1` (stereo unspecified), for which the survival was inactive: 125%.

As to `CCOC(=O)C1CCN(Cc2cn[nH]c2-c2ccc(C)cc2)CC1`, the survival is inactive: 93%.

For the compound `CCOC(=O)c1ccc(NC(=O)CSc2nnc(CNC(=O)c3ccc(OC)cc3)n2CC)cc1`, the survival is inactive: 121%.

As to `CC(C(=O)NCc1ccc2c(c1)OCO2)N(c1ccccc1)S(C)(=O)=O` (stereo unspecified), the survival was inactive: 70%.

Take `CC1CCc2c(sc3ncnc(NCCOCCO)c23)C1` (stereo unspecified): the survival was inactive: 98%.

For `COc1ccc(NC2CC(O)C(CO)O2)cc1` (stereo unspecified), the survival was inactive: 105%.

On to `COC(=O)c1ccccc1NC(=O)c1ccc2nc(Cc3ccccc3)oc2c1`, for which the survival is inactive: 94%.

As for `COC(=O)c1ccccc1NC(=O)c1nc(S(=O)(=O)Cc2cccc(C)c2)ncc1Cl`, the survival is active: 39%.

Take `O=C(CCCn1c(=O)c2ccccc2n(Cc2ccc(F)cc2Cl)c1=O)NCCc1ccc(Cl)cc1`: the survival is inactive: 80%.

For `CC(=O)Nc1ccc(NC(=O)c2ccc(COc3ccc(Cl)cc3Cl)o2)cc1`, the survival is active: 46%.

For the compound `Cc1cccc(NC(=O)c2c(C)cc(C)nc2SCC(=O)Nc2c(C)cc(C)cc2C)c1`, the survival was inactive: 52%.

Take `Cc1ccc(-n2nc(CO)c(C(=O)NCc3cccs3)n2)cc1C`: the survival was active: 39%.

Regarding `CCc1ccc(-c2nc3cc(NC(=O)c4cc5ccccc5cc4OC)ccc3o2)cc1`, the survival was active: 11%.

For the compound `COC(=O)c1cc(NC(=O)[C@H](CCS(C)(=O)=O)N2Cc3ccccc3C2=O)cc(C(=O)OC)c1`, the survival is inactive: 86%.

As for `COc1ccc(Br)c(C(=O)Nc2cc3c(cc2N2CCCCC2)n(C)c(=O)c(=O)n3C)c1`, the survival is inactive: 69%.

On to `CCc1cc(C(=O)NC(C)c2ccccc2)no1` (stereo unspecified), for which the survival was inactive: 60%.

`COc1cc(C2CC(=O)N(Cc3ccc(F)cc3)c3ccccc3S2)cc(OC)c1OC` (stereo unspecified): the survival was inactive: 75%.

As to `COc1cc2c(cc1OC)C(COc1ccc(F)cc1)N(C(=O)c1ccc(S(=O)(=O)N3CCCC3)cc1)CC2` (stereo unspecified), the survival was inactive: 81%.

As to `CC(C)CC(=O)Nc1ccc(S(=O)(=O)Nc2cc3c(cc2N2CCOCC2)n(C)c(=O)c(=O)n3C)cc1`, the survival is inactive: 76%.

`Cc1ccc(NC(=O)c2cn3c4c(ccc(Cl)c4c2=O)OC(C)C3)c(C)c1` (stereo unspecified): the survival is inactive: 76%.

In the case of `CCCCc1nc2ccccc2n2c(-c3ccc(OC)cc3)c3c(=O)n(C)c(=O)n(C)c3c12`, the survival was inactive: 49%.

Consider `CC(C)c1ccc(NC(=O)C2CCN(c3nc(-c4ccc(C(C)C)cc4)no3)CC2)cc1`, for which the survival is inactive: 91%.

Regarding `Cc1c(C(=O)N2CCC(C)CC2)c(S(=O)(=O)NCc2ccc(Br)cc2)c(C)n1C`, the survival is inactive: 85%.

In the case of `COc1ccc(-n2ncc(C(=O)N3CCN(c4ncccn4)CC3)c2C2CCN(C(=O)OC(C)(C)C)CC2)cc1`, the survival was inactive: 84%.

Consider `Cc1ccccc1Nc1c(-c2ccc(Cl)s2)nc2c(C)cccn12`, for which the survival was inactive: 69%.

For the compound `Cc1cc(C)cc(NC(=O)CCCN2C(=O)COc3ccc(C)cc32)c1`, the survival was inactive: 68%.

`COc1ccc(CC(=O)NC2CCN(Cc3nnnn3C(C)(C)C)CC2)cc1OC`: the survival is inactive: 86%.

Consider `COc1ccc(C)cc1NC(=O)C1CCN(S(=O)(=O)c2ccc3[nH]c4c(c3c2)CCCCC4)CC1`, for which the survival was inactive: 94%.

With `Nc1cc(=O)nc(SCC(=O)Nc2ccc(F)cc2)n1-c1ccccc1Cl`, the survival was inactive: 75%.

As to `O=C(COc1ccc([N+](=O)[O-])cc1)NCC1(N2CCOCC2)CCCCC1`, the survival was inactive: 97%.

Take `CC1/C(=N/O)CC(c2ccco2)NC1c1ccco1` (stereo unspecified): the survival is inactive: 101%.

With `Oc1c(C(c2ccccc2F)N2CCCCC2)sc2nc(-c3ccco3)nn12` (stereo unspecified), the survival was inactive: 89%.

As to `CC(=O)c1cccc(NC(=O)CSc2nc(=O)n(Cc3cccnc3)c3c2CCC3)c1`, the survival is inactive: 75%.

On to `O=C(Cn1cc(SCc2ccccc2)c2ccccc21)N1CCCCC1`, for which the survival was inactive: 85%.

On to `COc1ccc(-c2nc(C)c(CCNC(=O)C(=O)Nc3c(C)cccc3C)s2)cc1OC`, for which the survival is inactive: 85%.

`CSc1ccc(CNC(=O)C2CCN(c3nnc(-n4cccc4CNc4ccc(C)cc4)s3)CC2)cc1`: the survival was inactive: 77%.

As to `N#Cc1c(-n2ncnc2-c2ccc(Br)cc2)sc2c1CCCCC2`, the survival is active: 2%.

Consider `COc1ccc(OC)c(CCNC(=O)C2CCN(c3ncnc4c3nc3n4CCCCC3)CC2)c1`, for which the survival is inactive: 80%.

With `COc1ccc(OC)c(NC(=O)CCc2c(C)nn(-c3ccc(N4CCCC4)nn3)c2C)c1`, the survival was inactive: 113%.

Turning to `CCOc1ccccc1NC(=O)Cn1c(=O)n(CCCC(=O)NCCc2ccc(C)cc2)c(=O)c2ccccc21`, the survival was inactive: 89%.

With `CC(C)(C)OC(=O)N1CCC(c2c(C(=O)NCCCN3CCc4ccccc4C3)cnn2-c2ccccc2)CC1`, the survival is inactive: 66%.

`Cc1ccc(N2CC(NC(=O)c3ccc(S(=O)(=O)N4CCCC4)cc3)CC2=O)cc1` (stereo unspecified): the survival was inactive: 102%.

Turning to `CC(C)c1ccc(NC(=O)c2ccc3c(c2)CCCN3S(C)(=O)=O)cc1`, the survival is inactive: 51%.

As for `CCC(c1ccc(F)cc1)n1cc(C(=O)NCCc2ccco2)nn1` (stereo unspecified), the survival was inactive: 95%.

`Cc1ccc(-n2c(SCc3ccccc3F)nc3[nH]ncc3c2=O)cc1C`: the survival was inactive: 89%.

On to `Cc1cccc(NC(=O)Cn2nc(-c3ccc(Cl)cc3)c3ccccc3c2=O)c1`, for which the survival is inactive: 142%.

With `COc1ccccc1CNC(=O)c1cccn1-c1nnc(N2CCCC2)s1`, the survival was inactive: 92%.

For `O=C(CSc1ccc2nc(-c3ccccc3)cn2n1)Nc1ccccc1C(F)(F)F`, the survival is inactive: 67%.

Regarding `O=C(Nc1cccc(-c2nc3ncccc3o2)c1)c1ccc(-c2cccc(Cl)c2Cl)o1`, the survival was inactive: 79%.

As for `Cc1cccc(NC(=O)C(=O)c2cc(C)n(-c3ccccc3)c2C)c1C`, the survival is inactive: 80%.

With `O=S(=O)(c1cccc(S(=O)(=O)N2CCOCC2)c1)N1CCCCCC1`, the survival is inactive: 91%.

Turning to `COc1ccc(C(=O)NCC(c2cccnc2)N2CCN(c3ccc(F)cc3)CC2)cc1` (stereo unspecified), the survival was inactive: 82%.

Take `O=C(NCC(c1ccc(Cl)cc1)N1CCCCC1)c1ccc(F)cc1` (stereo unspecified): the survival is inactive: 62%.

Turning to `Nc1nc(N)c(S(=O)(=O)c2ccccc2)c(Nc2ccc(Br)cc2)n1`, the survival was active: 44%.

On to `COc1cccc(-c2cc(C(F)(F)F)nc(-n3nc(C)c(Br)c3C)n2)c1`, for which the survival was active: 41%.

Regarding `CC(=O)Nc1nonc1NC(C)=O`, the survival was inactive: 87%.

As for `O=c1c2c3c(sc2nc2n1CCCCC2)C(O)CCC3` (stereo unspecified), the survival is inactive: 59%.

Consider `CNC(=O)c1ccc(Nc2nnc(-c3ccc(C)c(S(=O)(=O)NC(C)(C)C)c3)c3ccccc23)cc1`, for which the survival was inactive: 94%.

As to `CCc1ccc(-n2c(=O)c3cccnc3n2CC(=O)NCc2ccc(F)cc2)cc1`, the survival was inactive: 94%.

On to `CCOC(=O)N1CCc2c(sc3c2c(=O)n(Cc2ccccc2)c(=O)n3CC(=O)Nc2c(C)cccc2C)C1`, for which the survival was inactive: 81%.

Regarding `CCOCN(C(=O)Cn1c(C(C)O)nc2ccccc21)c1c(C)cccc1CC` (stereo unspecified), the survival was inactive: 83%.

For the compound `O=C(NCc1cccc(F)c1)c1ccc(CS(=O)c2ccccc2Cl)o1` (stereo unspecified), the survival is inactive: 68%.

With `Cn1c(=O)c(=O)n(C)c2cc(S(=O)(=O)N3CCN(c4ccccc4F)CC3)ccc21`, the survival was inactive: 83%.

Regarding `O=C(Nc1cccc(C(F)(F)F)c1)c1noc2c1CCc1ccccc1-2`, the survival is inactive: 55%.

For `CC(=O)c1cc(-c2ccccc2)n(CC(=O)NC2CCCCCC2)c1C`, the survival was inactive: 113%.

Consider `CCc1nc(-c2cc(S(=O)(=O)N3CCN(c4ccc(F)cc4)CC3)ccc2OC)no1`, for which the survival is inactive: 49%.

As to `COc1ccc(N2CCN(C(=O)CSCc3nc(-c4ccccc4Cl)oc3C)CC2)cc1`, the survival is inactive: 83%.

Take `CN(C1CCCCC1)S(=O)(=O)c1ccc(C(=O)Nc2sc3c(c2C(N)=O)CC(C)(C)NC3(C)C)cc1`: the survival was inactive: 84%.

`Cc1cc(O)c(C(c2cccc(F)c2)N2CCC(C)CC2)c(=O)n1Cc1ccco1` (stereo unspecified): the survival was inactive: 82%.
